# Test results as given in PubChem BioAssay AID588453 (National Center for Advancing Translational Sciences (NCATS), 2011).
# Where “and” joins values, the source holds several entries; their conditions need not be identical. Equal entries are not always repeated. Screen size: about 390,000 compounds; about 4,000 (1%) were called active. This list was built around the results that the source calls inconclusive (neither active nor inactive); the mix of calls is not that of the screen. The call rests on the fitted dose curve; in most records, active means well fitted inhibition curve with a large enough effect; inconclusive means small, poorly fitted or top-dose-only effect; inactive means no such curve, though single readings can be large or run the other way. Potencies of inconclusive entries are doubtful fits and often do not repeat. A structure can be active in one record and inactive in another.
# Molecular target: Thioredoxin reductase 1, cytoplasmic (Rattus norvegicus) (UniProt O89049)
# Assay: qHTS Assay for Inhibitors of Mammalian Selenoprotein Thioredoxin Reductase 1 (TrxR1): qHTS; further: nearly all actives have a fitted effect of over 65% in size
# Conditions: recombinant rTrxR1, NADPH fluorescence consumption, selenite substrate; series mostly up to 114 µM; activity change, negative = inhibition: at the top concentration
# Description: The selenoprotein thioredoxin reductase (TrxR; EC 1.8.1.9) is a FAD containing homodimeric pyridine nucleotide-disulfide oxidoreductase with many cellular roles. Together with NADPH and its prime substrate thioredoxin (Trx), the enzyme forms the core of the Trx system. The mammalian Trx system exerts a wide spectrum of functions including redox regulation, antioxidant defense, regulation of transcription factors as well as support of cell growth and replication. Many of these functions involve the reduction of Trx, which may subsequently reduce a number of different substrates including ribonucleotide reductase, peroxiredoxins or NFkB. Mammalian TrxR itself also has a broad substrate specificity, reducing both protein and non-protein substrates, including low molecular weight compounds such as dehydroascorbate, lipoic acid, ubiquinone, and juglone. In addition, several drugs in clinical use for anticancer treatment are indeed known to target TrxR1.
# This BioAssay is a validation of an NADPH fluorescence-based, dual-purpose qHTS rTrxR1 assay designed to find potential inhibitors and substrates of rTrxR1. For this particular BioAssay, actives are potential inhibitors. See related BioAssay for substrate data deposition.
# NIH Molecular Libraries Probe Production Network [MLPCN]
# NIH Chemical Genomics Center [NCGC]
# Assay Provider: Elias Arner, Karolinska Institute
# Assay protocol: 2 uL of reagents (buffer in column 4 as negative control and 90 nM rTrxR1 in columns 1-3 and 5-48) were dispensed into Greiner black solid-bottom 1,536-well assay plates, followed by 1 uL of NADPH (400 uM final concentration) to each well. The plates were centrifuged at 1000 rpm for 15 seconds and subsequently incubated for 5 min at room temperature (~22 deg C) to allow for rTrxR1 reduction. Compounds (23 nL) were then transferred via Kalypsys pin tool equipped with 1536-pin array (10 nL slotted pins, V&P Scientific, San Diego, CA). In addition, a duplicate 2-fold serial dilution of the control compounds auranofin, a known gold-based TrxR1 inhibitor, and juglone (5-hydroxy-1,4-naphthoquinone), a natural TrxR1 substrate, were pin-transferred to columns 2 and 3, respectively. After incubation for 15 min at room temperature (~22 deg C), 1 uL of selenite (400 uM final concentration) were dispensed to each well. The plate was immediately transferred to a ViewLux high-throughput CCD imager (PerkinElmer), wherein kinetic measurements of NADPH fluorescence (Ex 340 nm, Em 450 nm) were acquired (8 minute kinetic read, see Table 1). Read 1 was utilized to assess the capacity of a compound to serve as an rTrxR1 substrate, i.e. a decrease in NADPH fluorescence compared to the no-compound background is an indication of a substrate behavior for that particular compound. For inhibitory activity of a compound, delta values, computed as the difference in fluorescence intensity between the first and last reads of an 8-minute time kinetic window, were used. All reagents were diluted in an assay buffer consisting of 50 mM Tris-HCl, pH 7.5, 2 mM EDTA, and 0.01% Tween-20.
# Throughout the screen, reagent bottle and all liquid lines were made light-tight to minimize reagent degradation. All screening operations were performed on a fully integrated robotic system (Kalypsys, San Diego, CA) containing one RX-130 and two RX-90 anthropomorphic robotic arms (Staubli, Duncan, SC). Library plates were screened starting from the lowest and proceeding to the highest concentration, and a 'double-pinning' step of the highest concentration was required to access higher concentrations of compounds. Vehicle-only plates, with DMSO being pin-transferred to the columns 5-48, were inserted uniformly at the beginning and the end of each library in order to monitor and record any shifts in the background, which can be affected by reagent dispensers or loss in enzyme activity over time. […]
# On the % scale 0 is the no-effect control and ±100 the full control effect; potency means the concentration at half of the fitted maximal effect; tags describe the fitted curve by direction and shape.
# UniProt O89049, sequence (O89049 whole entry, looked up): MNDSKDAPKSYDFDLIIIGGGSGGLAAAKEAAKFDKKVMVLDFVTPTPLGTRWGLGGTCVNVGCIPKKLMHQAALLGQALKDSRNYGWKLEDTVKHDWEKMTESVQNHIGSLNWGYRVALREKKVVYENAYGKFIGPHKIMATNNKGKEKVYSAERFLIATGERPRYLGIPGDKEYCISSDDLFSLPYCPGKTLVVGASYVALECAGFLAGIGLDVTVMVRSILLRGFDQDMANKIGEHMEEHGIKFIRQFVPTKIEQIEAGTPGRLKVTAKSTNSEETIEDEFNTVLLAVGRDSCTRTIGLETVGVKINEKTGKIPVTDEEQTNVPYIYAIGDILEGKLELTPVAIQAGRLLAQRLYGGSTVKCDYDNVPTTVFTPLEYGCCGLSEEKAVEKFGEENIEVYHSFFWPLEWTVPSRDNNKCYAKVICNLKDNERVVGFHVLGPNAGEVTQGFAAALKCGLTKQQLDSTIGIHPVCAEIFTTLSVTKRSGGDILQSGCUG
SMILES,Potency,"activity change, negative = inhibition"
O=C(CN1C(=O)C2(OCCO2)c2ccccc21)c1ccc(Cl)cc1,"inconclusive: 39.8 µM [inhibitor, single point]",
COc1ccc(CCNCc2ccncc2)cc1OC,"inconclusive: 11.2 µM [inhibitor, single point]",
O=c1c2ccccc2[se]n1-c1ccccc1,active: 28.2 µM,
CCN(CC)c1nc2c(C)cccn2c(=O)c1C=C1C(=O)NC(=O)NC1=O,"inconclusive: 89.1 µM [inhibitor, single point]",
CC(C)(C)C(O)C(Oc1ccc(Cl)cc1)n1cncn1 (configuration not stated),,inactive: 9.39%
CCN(CC)CCN=Cc1c(O)n(Cc2ccccc2)c(=O)[nH]c1=O,"inconclusive: 17.8 µM [inhibitor, partial curve, poor fit]",
O=C(CCN1CCOCC1)Nc1ccc(Br)cc1C(=O)c1ccccc1,"inconclusive: 70.8 µM [inhibitor, partial curve]",
S=c1[nH]nc(-c2ccccc2)n1CC1CCCO1 (configuration not stated),"inconclusive: 11.2 µM [inhibitor, partial curve, poor fit]",
C=C1C(O)(c2ccccc2)C2CC[N+]1(C)CC2 (configuration not stated),,inactive: 17.9%
CC1=NN(c2ccccc2)C(=O)C1/C=C1\C(=O)NC(=O)N(c2cc(C)cc(C)c2)C1=O (configuration not stated),"inconclusive: 22.4 µM [inhibitor, partial curve, poor fit]",
COc1ccc(C(=O)CC2C(=O)N(C)C(=O)N(C)C2=O)cc1,"inconclusive: 25.1 µM [inhibitor, single point]",
C=CCN1C(=O)/C(=C/c2ccc(Br)s2)C(=O)NC1=S,active: 6.31 µM,
NC(=O)Cn1cc(C=C2C(=O)NC(=O)NC2=O)c2ccccc21,"inconclusive: 25.1 µM [inhibitor, partial curve, poor fit]",
C[Se]C[C@H](N)C(=O)O,"inconclusive: 23.8 µM [inhibitor, single point]",
COc1ccc(C(=O)C2CN(C)CC2C(=O)c2ccc(OC)cc2)cc1 (configuration not stated),"inconclusive: 25.1 µM [inhibitor, partial curve, poor fit]",
Cc1ccc(/C=C2/C(=O)NC(=O)N(CC3CCCO3)C2=O)s1 (configuration not stated),active: 50.1 µM,

SMILES,Potency,"activity change, negative = inhibition"
CCOc1cc(/C=C2\C(=O)NC(=O)N(C)C2=O)cc([N+](=O)[O-])c1O,"inconclusive: 12.6 µM [inhibitor, full curve]",
O=C(Nc1ccccc1)c1cc([N+](=O)[O-])ccc1N1CCNCC1,"inconclusive: 89.1 µM [inhibitor, single point]",
CCC1(NS(=O)(=O)c2ccc(N)cc2)C(=O)N(C)C(=O)N(C)C1=O,"inconclusive: 2 µM [inhibitor, partial curve, poor fit]",
Cc1ncc(CN2CCCC(C(=O)c3cccc(OC(C)C)c3)C2)s1 (configuration not stated),,inactive: 13.7%
COc1cc2c3c(c1OC)Oc1ccc(cc1)C[C@H]1c4c(cc(OC)c(OC)c4Oc4ccc(cc4)C[C@@H]3N(C)CC2)CCN1C,"inconclusive: 89.1 µM [inhibitor, partial curve, poor fit]",
C=C(C=O)C[C@@H]1C[C@H](O)C2OC3C[C@]4(C)OC5/C=C\CC6OC7C(CC=CCC6OC5CCCC4OC3CC2O1)OC1CC2OC3CC(=O)OC3C[C@@H](C)C[C@@]2(C)OC1C[C@@H]7C (some centres not stated),"inconclusive: 31.6 µM [inhibitor, partial curve]",
ClCCN1CCN(c2ccnc3cc(Cl)ccc23)CC1,"inconclusive: 56.2 µM [inhibitor, partial curve]",
COc1ccc(OC)c(N2C(=O)CC(=O)NC2=O)c1,"inconclusive: 14.1 µM [inhibitor, partial curve, poor fit]",
COc1ccc(CN2C(=O)CC(=O)NC2=O)cc1,"inconclusive: 2.51 µM [inhibitor, full curve]",
O=C1NC(=O)N(Cc2ccccc2)C(=O)/C1=C/N1CCCc2ccccc21,"inconclusive: 3.98 µM [inhibitor, full curve]",
Cc1cccc(N2C(=O)/C(=C/c3ccc(N4CCN(C)CC4)o3)C(=O)NC2=S)c1C,"inconclusive: 89.1 µM [inhibitor, partial curve, poor fit]",
Cc1cc(N2CCNCC2)nc2ccccc12,"inconclusive: 70.8 µM [inhibitor, partial curve]",
COc1ccc(-c2nc(CN3C(=O)CN=C(c4ccccc4)c4ccccc43)c(C)o2)cc1OC,,inactive: 4.49%
CN1CCc2cc(O)cc3c2C1Cc1ccc(O)c(O)c1-3 (configuration not stated),"inconclusive: 9.47 µM [inhibitor, partial curve]",
C=CCc1cc(C=C2C(=O)N(C)C(=O)N(C)C2=O)cc(OCC)c1OCc1ccccc1,"inconclusive: 17.8 µM [inhibitor, partial curve]",
CN1CCc2cc(O)cc3c2[C@H]1Cc1ccc(O)c(O)c1-3,"inconclusive: 31.6 µM [inhibitor, partial curve] and inconclusive: 670 nM [inhibitor, full curve]",
